The list shows a part of the results. The exact form of the protein is not confirmed.

The record followed here is paper PMC5892938.

For the test, the target named is GST-SBP-ILF3 (Homo sapiens) (UniProt Q12906). Kind of test: targeted RNA Bind-n-Seq. As to conditions: RBNS binding buffer: 25 mM Tris pH 7.5, 150 mM KCl, 3 mM MgCl2, 0.1% Tween, 0.5 mg/mL BSA, 1 mM DTT; 27 nM protein, 750 pM RNA pool; temperature not stated; high values mean tight binding; sequences stand for … in GGGUAAAAGCGAGGUGAA…CGGGACAAGUAUUAUGGG
Consider “UUUUUUUUUUGAGACGGGCACCGUCUCCGG [tttttgagapaired]”, for which the binding signal (log2 fold change) worked out at 0.491. As to “UUUUUUUUUUGAGACGGUCUCCGUCUCCUA [tttttgagapaired]”, the binding signal (log2 fold change) was determined as 0.464. As for “UUUUUUUUUUGAGACUGAGCCAGUCUUCUG [tttttgagapaired]”, the figure is 0.301; as for “GUGUGUGGUGUUGGAAUCUAACACCAUACG [gtspaired]”, -0.727; as for “UUUUUUUUUUGAGAACGAUCCGUUCUCCUA [tttttgagapaired]”, 0.0328.

With “UUUUUUUUUUGAGAACGAAGCGUUCUCCGG [tttttgagapaired]”, the binding signal (log2 fold change) is -0.202. “UUUUUUUUUUGAGAGCGGUACGCUCUUCUG [tttttgagapaired]”: the binding signal (log2 fold change) stood at 0.125. As for “UUUUUUUUUUGAGACCGACACGGUCUCCUA [tttttgagapaired]”, the figure is 0.411. For “UUUUUUUUUUGAGACGGGAUCCGUCUCCGG [tttttgagapaired]”, the binding signal (log2 fold change) was determined as 0.403. With “UUUUUUUUUUGAGAGCGGAGCGCUCUUCUA [tttttgagapaired]”, the binding signal (log2 fold change) is 0.332. Regarding “UUUUUUUUUUGAGACGGCUUCCGUCUUCUA [tttttgagapaired]”, the binding signal (log2 fold change) was 0.551.

Take “UUUUUUUUUUGAGACCGGGCCGGUCUCCAG [tttttgagapaired]”: the binding signal (log2 fold change) was determined as 0.644. On to “UUUUUUUUUUGAGAGCGGGCCGCUCUUCUA [tttttgagapaired]”, for which the binding signal (log2 fold change) came out at 0.344. As for “UUUUUUUUUUGAGACGGUAGCCGUCUCCAG [tttttgagapaired]”, the figure is 0.505; as for “UUUUUUUUUUGAGACCGUAACGGUCUCCUG [tttttgagapaired]”, 0.382; as for “UUUUUUUUUUGAGAGGGCAGCCCUCUCCUG [tttttgagapaired]”, 1.22. For “UUUUUUUUUUGAGACCGCUGCGGUCUCCGG [tttttgagapaired]”, the binding signal (log2 fold change) worked out at 0.875. With “UUUUUUUUUUGAGACUGCAGCAGUCUUCUA [tttttgagapaired]”, the binding signal (log2 fold change) was found to be 0.441.

Take “GUUGGUGGUGUUGGCAUCUAACACCGCCGA [gtspaired]”: the binding signal (log2 fold change) was -0.15.

Consider “UUUUUUUUUUGAGACCGCAUCGGUCUUCUA [tttttgagapaired]”, for which the binding signal (log2 fold change) amounted to 0.43. As to “GUGUGUUGUGUUGGUACCUAACACAGCACG [gtspaired]”, the binding signal (log2 fold change) was -0.727.

Regarding “UUUUUUUUUUGAGAGCGUGGCGCUCUUCUA [tttttgagapaired]”, the binding signal (log2 fold change) came out at 0.506. Turning to “GGUUGGUGUGUUGGCGUCUAACACAUCAGC [gtspaired]”, the binding signal (log2 fold change) is -0.636. As for “UUUUUUUUUUGAGAUGGGAUCCGUCUCCUA [tttttgagapaired]”, the figure is 0.184; as for “UUUUUUUUUUGAGAUGGCGGCCAUCUCCUG [tttttgagapaired]”, 0.868; as for “UUUUUUUUUUGAGACUGCGACAGUUUCCUG [tttttgagapaired]”, 0.78. As for “UUUUUUUUUUGAGAGCGAUGCGCUCUCCGG [tttttgagapaired]”, the figure is 0.261. On to “UUUUUUUUUUGAGACGGAUACCGUUUCCGG [tttttgagapaired]”, for which the binding signal (log2 fold change) turned out to be 0.469. As to “UUUUUUUUUUGAGAACGUACCGUUCUCCAG [tttttgagapaired]”, the binding signal (log2 fold change) was 0.512. As for “UUUUUUUUUUGAGACUGAUCCAGUCUCCUA [tttttgagapaired]”, the binding signal (log2 fold change) worked out at 0.192. “UUUUUUUUUUGAGAGGGACUCCUUCUCCAG [tttttgagapaired]”: the binding signal (log2 fold change) came to 0.00867. For “UUUUUUUUUUGAGACCGGAGCGGUCUCCAG [tttttgagapaired]”, the binding signal (log2 fold change) stood at 0.726. With “UUUUUUUUUUGAGAACGAACCGUUCUCCGG [tttttgagapaired]”, the binding signal (log2 fold change) is 0.0448. For the sequence “GUGUGUGGUGUUGGAGUCUAACACCAUACA [gtspaired]”, the binding signal (log2 fold change) is -0.404. Under “GUGUGUGGUGUUGGCUCCUAACACCGCAUA [gtspaired]” stands -0.233; under “UUUUUUUUUUGAGACUGAGGCAGUCUCCAG [tttttgagapaired]”, 0.351; under “UUUUUUUUUUGAGACCGAUUCGGUCUCCGG [tttttgagapaired]”, 0.243. Under “GUGUGUUGUGUUGGUGUCUAACACAACGCG [gtspaired]” stands -0.986. As for “UUUUUUUUUUGAGACGGCUCCCGUCUCCAG [tttttgagapaired]”, the figure is 0.894; as for “UUUUUUUUUUGAGAGGGAUACCCUCUUCUG [tttttgagapaired]”, 0.375; as for “GUGUGGUGUGUUGGUCUCUAACACACUACA [gtspaired]”, -0.543. Consider “UUUUUUUUUUGAGAGGGAGCCCCUUUCCAG [tttttgagapaired]”, for which the binding signal (log2 fold change) stood at 0.303.

On to “GUGGUUGGUGUUGGCUCCUAACACCGACCG [gtspaired]”, for which the binding signal (log2 fold change) is -0.862. As for “UUUUUUUUUUGAGAGCGAGUCGUUCUCCUG [tttttgagapaired]”, the figure is 0.393. As for “UUCUCUCUUCCUCCAGCGGAGGAGGGGAGA [ctspaired]”, the figure is -0.363. Under “UUUUUUUUUUGAGAGUGGGGCAUUCUCCGG [tttttgagapaired]” stands 0.538; under “GUGUGGUGUGUUGGCGUCUAACACAUCGCA [gtspaired]”, -0.745; under “GGUGGUGGUGUUGGCCUCUAACACCACUAC [gtspaired]”, -0.355. Regarding “UUUUUUUUUUGAGAGCGUAGCGUUCUUCUG [tttttgagapaired]”, the binding signal (log2 fold change) amounted to 0.491. As for “UUUUUUUUUUGAGAACGGUACGUUCUCCAG [tttttgagapaired]”, the figure is 0.116; as for “UUCUCUUCUCCUCCGAGGGAGGGGAAGGGA [ctspaired]”, -0.255. Under “GGUGUUGGUGUUGGAGUCUAACACCAGCGC [gtspaired]” stands -0.278; under “UUUUUUUUUUGAGAGCGGAACGUUCUCCGG [tttttgagapaired]”, 0.0206. As for “GGUGGUGGUGUUGGUCCCUAACACCGCCGC [gtspaired]”, the figure is -0.539; as for “GGUGGUUGUGUUGGUAUCUAACACAGCUAC [gtspaired]”, -0.735. Regarding “UUUUUUUUUUGAGAUGGCUACCAUCUUCUG [tttttgagapaired]”, the binding signal (log2 fold change) is 0.509. As for “GUGGUGUGUGUUGGCAUCUAACACAUACUA [gtspaired]”, the figure is -0.865; as for “GUUGUGUGUGUUGGAGUCUAACACACGCAA [gtspaired]”, -0.0577. In the case of “UUUUUUUUUUGAGACUGGAGCAGUCUUCUG [tttttgagapaired]”, the binding signal (log2 fold change) was 0.833. As for “UUUUUUUUUUGAGACUGGUUCAGUCUCCUG [tttttgagapaired]”, the figure is 0.113; as for “GUGGUGUGUGUUGGAGCCUAACACAUACCG [gtspaired]”, -0.62. On to “UUUUUUUUUUGAGACUGGUCCAGUCUCCUG [tttttgagapaired]”, for which the binding signal (log2 fold change) was found to be 0.917.

With “UUUUUUUUUUGAGACGGGACCCGUCUCCUG [tttttgagapaired]”, the binding signal (log2 fold change) amounted to 0.831. Under “UUUUUUUUUUGAGAUGGGACCCAUCUCCUA [tttttgagapaired]” stands 0.47; under “GUGUGUUGUGUUGGCCCCUAACACAACGCA [gtspaired]”, -0.0487.
